A lower IC50 marks a more sensitive line; fits outside the tested doses are given as limits. For AUC the same curve is integrated over the 256-fold range of doses and scaled to a fraction: 1 means no effect, lower means more sensitive. Any top dose called inferred is not printed in the source and was worked back from the curve model.
Legend:
Experiment in all cases: Viability of human cancer cell lines after 72 h of drug (GDSC screen)
HG-6-64-1 = compound: CCN1CCN(Cc2ccc(NC(=O)c3ccc(C)c(/C=C/c4cnc5[nH]ccc5c4OC)c3)cc2C(F)(F)F)CC1 [HG-6-64-1]; conditions: top dose 5.12 µM; top dose inferred
Method: (§1)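 Human cancer cell lines in 384-well plates, medium with 10% serum, drug for 72 h over a 256-fold dose range (nine 2-fold or five 4-fold steps up to the top dose). Adherent lines were fixed and stained with the nucleic acid dye Syto60, suspension lines read with resazurin; signal relative to control wells, capped at 0 and 100%. One two-parameter sigmoid per drug and line, fitted in a mixed model over all curves with the slope shared within a line.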

I-BET-762 = compound: CCNC(=O)C[C@@H]1N=C(c2ccc(Cl)cc2)c2cc(OC)ccc2-n2c(C)nnc21 [I-BET-762]; conditions: top dose 20 µM; top dose inferred
Method: as §1

AV-951 = compound: COc1cc2nccc(Oc3ccc(NC(=O)Nc4cc(C)on4)c(Cl)c3)c2cc1OC [AV-951]; conditions: top dose 0.128 µM; top dose inferred
Method: as §1

MS-275 = compound: Nc1ccccc1NC(=O)c1ccc(CNC(=O)OCc2cccnc2)cc1 [MS-275]; conditions: top dose 5 µM; top dose inferred
Method: as §1

KIN001-244 = compound: O=C(NC(COc1ccc2[nH]c(=O)[nH]c2c1)c1ccccc1)c1cccn(Cc2ccc(F)c(F)c2)c1=O [KIN001-244]; conditions: top dose 20 µM; top dose inferred
Method: as §1

PF-4708671 = compound: CCc1cncnc1N1CCN(Cc2nc3ccc(C(F)(F)F)cc3[nH]2)CC1 [PF-4708671]; conditions: top dose 10 µM; top dose inferred
Method: as §1

Row | Cell Line | AUC (HG-6-64-1) | IC50 (HG-6-64-1) | AUC (I-BET-762) | IC50 (I-BET-762) | AUC (AV-951) | IC50 (AV-951) | AUC (MS-275) | IC50 (MS-275) | AUC (KIN001-244) | IC50 (KIN001-244) | AUC (PF-4708671) | IC50 (PF-4708671)
1 | BC-3 (B-cell lymphoma, suspension) | 0.911 | > 5.12 µM | 0.953 | > 20 µM | 0.987 | > 128 nM | 0.656 | 803 nM | 0.829 | 10.7 µM | – | –
2 | CAL-148 (breast, suspension) | 0.963 | > 5.12 µM | 0.867 | 15.7 µM | 0.985 | > 128 nM | 0.728 | 1310 nM | 0.884 | 18.9 µM | – | –
3 | DOHH-2 (B-cell lymphoma, suspension) | 0.465 | 0.257 µM | – | – | – | – | 0.899 | > 5000 nM | – | – | – | –
4 | ECC12 (stomach, suspension) | 0.633 | 0.823 µM | – | – | – | – | 0.626 | 762 nM | – | – | – | –
5 | EW-12 (Ewing sarcoma, suspension) | – | – | – | – | – | – | 0.812 | > 5000 nM | – | – | – | –
6 | GCIY (stomach, adherent) | 0.738 | 1.69 µM | 0.969 | > 20 µM | 0.981 | > 128 nM | 0.835 | 3890 nM | 0.88 | > 20 µM | 0.869 | > 10 µM
7 | H9 (lymphoid neoplasm, suspension) | 0.856 | 3.02 µM | 0.992 | > 20 µM | 0.989 | > 128 nM | 0.424 | 201 nM | 0.8 | 7.74 µM | 0.96 | > 10 µM
8 | HCC1599 (breast, suspension) | 0.87 | > 5.12 µM | 0.814 | 12.9 µM | 0.981 | > 128 nM | 0.586 | 555 nM | 0.711 | 5.45 µM | – | –
9 | HCC2998 (large intestine, adherent) | 0.925 | > 5.12 µM | 0.968 | > 20 µM | 0.988 | > 128 nM | 0.662 | 867 nM | 0.935 | > 20 µM | 0.962 | > 10 µM
10 | HCC-33 (small cell lung carcinoma, adherent) | 0.967 | > 5.12 µM | 0.848 | 15.2 µM | 0.985 | > 128 nM | 0.489 | 291 nM | 0.957 | > 20 µM | – | –
11 | KP-N-YS (neuroblastoma, adherent) | 0.839 | 4.24 µM | 0.829 | 15 µM | 0.962 | > 128 nM | 0.922 | > 5000 nM | 0.861 | > 20 µM | – | –
12 | LS-411N (large intestine, adherent) | 0.731 | 1.7 µM | 0.646 | 3.47 µM | 0.963 | > 128 nM | 0.683 | 1140 nM | 0.865 | > 20 µM | 0.95 | > 10 µM
13 | MHH-NB-11 (neuroblastoma, adherent) | 0.96 | > 5.12 µM | 0.841 | 15.9 µM | 0.966 | > 128 nM | 0.576 | 517 nM | 0.89 | > 20 µM | – | –
14 | ML-2 (acute myeloid leukaemia, suspension) | 0.898 | > 5.12 µM | – | – | 0.989 | > 128 nM | 0.738 | 1360 nM | 0.681 | 3.75 µM | 0.949 | > 10 µM
15 | MOLP-8 (myeloma, suspension) | 0.667 | 0.912 µM | 0.349 | 0.487 µM | 0.986 | > 128 nM | 0.614 | 635 nM | 0.641 | 3.01 µM | 0.981 | > 10 µM
16 | MSTO-211H (mesothelioma, adherent) | 0.991 | > 5.12 µM | 0.99 | > 20 µM | 0.99 | > 128 nM | 0.749 | 1490 nM | 0.991 | > 20 µM | 0.991 | > 10 µM
17 | MY-M12 (leukaemia, suspension) | 0.168 | 0.0264 µM | 0.518 | 1.41 µM | 0.626 | 18.7 nM | 0.559 | 463 nM | 0.447 | 0.881 µM | 0.918 | > 10 µM
18 | NB6 (neuroblastoma, adherent) | 0.88 | > 5.12 µM | 0.845 | 19.7 µM | 0.936 | > 128 nM | 0.835 | 4400 nM | 0.869 | > 20 µM | 0.972 | > 10 µM
19 | NB69 (neuroblastoma, adherent) | 0.681 | 0.96 µM | 0.885 | 17.6 µM | 0.984 | > 128 nM | 0.729 | 1280 nM | 0.875 | 15.8 µM | 0.932 | > 10 µM
20 | NCI-H64 (small cell lung carcinoma, suspension) | 0.771 | 1.49 µM | 0.755 | 5.3 µM | 0.996 | > 128 nM | 0.92 | 4140 nM | 0.869 | 10.9 µM | 0.996 | > 10 µM
21 | NCI-H128 (small cell lung carcinoma, suspension) | – | – | – | – | – | – | 0.901 | > 5000 nM | – | – | – | –
22 | NCI-H510A (small cell lung carcinoma, semi-adherent) | 0.946 | > 5.12 µM | 0.93 | > 20 µM | 0.986 | > 128 nM | 0.659 | 826 nM | 0.883 | 18.3 µM | 0.975 | > 10 µM
23 | NCI-H748 (small cell lung carcinoma, suspension) | 0.956 | > 5.12 µM | 0.772 | 9.9 µM | 0.925 | > 128 nM | 0.344 | 102 nM | – | – | – | –
24 | NCI-H1963 (small cell lung carcinoma, suspension) | 0.963 | > 5.12 µM | 0.991 | > 20 µM | – | – | 0.611 | 604 nM | 0.96 | > 20 µM | 0.991 | > 10 µM
25 | NCI-H2171 (small cell lung carcinoma, suspension) | 0.992 | > 5.12 µM | 0.971 | > 20 µM | 0.991 | > 128 nM | 0.654 | 781 nM | 0.951 | > 20 µM | – | –

Source: the supplement of paper PMC4967469
